In the supplement of paper PMC12645437, “Orthogonal IMiD-Degron Pairs Induce Selective Protein Degradation in Cells” (ACS Chemical Biology, 2025):
This is one part of the list.

molecular target: no compound (DMSO); assay: log2 fold change of degron read counts, EGFP-low vs EGFP+ sorted cells; higher = lower degron-EGFP level without compound (poor expression or instability); conditions: compound: DMSO control; 18 h
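Also: jurkat cells carrying a lentiviral library of mutant zinc finger degrons fused to EGFP plus mCherry, mCherry+ cells FACS sorted, degron abundance counted by next-generation sequencing.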

Sequence | log2 fold change of degron read counts
FKCNICGAIFTQKGNLLRHIKL | -0.189
FFCNQCGRYFTQKGNLLRHIKL | 0.873
FECPICGAQFTQKGNLLRHIKL | -0.715
LKCNQCGFHCTQKGNLLRHIKL | 1.19
FRCNQCGASFTQKGNLLRHIKL | -0.417
FDCDVCGAFFTQKGNLLRHIKL | 0.219
LYCEICGFACTQKGNLLRHIKL | -0.015
FACEICGRAFTQKGNLLRHIKL | -1.58
LGCEICGFPCTQKGNLLRHIKL | 0.12
LRCPICGFHCTQKGNLLRHIKL | 0.464
FVCEICGRNFTQKGNLLRHIKL | -1.69
FSCNQCGRDFTQKGNLLRHIKL | -0.561
FECDVCGAPFTQKGNLLRHIKL | -0.943
LCCNQCGFICTQKGNLLRHIKL | 1.31
FWCEICGRHFTQKGNLLRHIKL | -0.0405
FLCNQCGRIFTQKGNLLRHIKL | 0.749
FNCNQCGRGFTQKGNLLRHIKL | -0.768
FQCDVCGAGFTQKGNLLRHIKL | -1.29
FTCPVCGAKFTQKGNLLRHIKL | -0.453
FLCDQCGAGFTQKGNLLRHIKL | -1.76
FECSVCGHCFTQKGNLLRHIKL | -1.17
FRCPQCGATFTQKGNLLRHIKL | -0.358
FDCNQCGHGFTQKGNLLRHIKL | 0.465
FACEICGRKFTQKGNLLRHIKL | -1.6
FGCEICGHDFTQKGNLLRHIKL | -0.763

Sequence | log2 fold change of degron read counts
FFCPICGRKFTQKGNLLRHIKL | -3.14
FHCDVCGANFTQKGNLLRHIKL | -1.56
FFCNICGAPFTQKGNLLRHIKL | 0.476
FVCPICGRPFTQKGNLLRHIKL | -1.47
FACEICGAWFTQKGNLLRHIKL | -0.346
FLCPQCGAVFTQKGNLLRHIKL | 0.0566
LGCEICGFGCTQKGNLLRHIKL | 0.38
FHCPICGRNFTQKGNLLRHIKL | -0.878
FRCDICGAWFTQKGNLLRHIKL | -0.943
FCCSVCGHNFTQKGNLLRHIKL | -0.544
FMCDQCGAQFTQKGNLLRHIKL | -0.708
FYCPICGHMFTQKGNLLRHIKL | 0.149
FTCDQCGAYFTQKGNLLRHIKL | -0.555
FTCDICGAAFTQKGNLLRHIKL | -0.544
FFCPICGRYFTQKGNLLRHIKL | 0.0171
FICEQCGAMFTQKGNLLRHIKL | -1.45
FTCPQCGAGFTQKGNLLRHIKL | -0.586
FWCDICGAVFTQKGNLLRHIKL | -0.0432
FCCNQCGHCFTQKGNLLRHIKL | 0.0232
FDCEICGAFFTQKGNLLRHIKL | -0.244
FWCEICGANFTQKGNLLRHIKL | -1.27
FWCNVCGAMFTQKGNLLRHIKL | 0.587
FWCPICGRDFTQKGNLLRHIKL | 0.518
FYCEQCGAYFTQKGNLLRHIKL | -0.631
FWCNQCGAYFTQKGNLLRHIKL | 1.03
